Out of some 200,000 compounds screened, about 10 (0.005%) were called active. The inconclusive results got no clear call from the source; some entries with a clear call stand among them for comparison. Calls come from the whole dose curve; as a rule, active = well fitted inhibition curve with a large enough effect; inconclusive = small, poorly fitted or top-dose-only effect, or effect the other way, or another doubt; inactive = no such curve, though single readings can be large or run the other way. No potency is given beside an inconclusive call; the fits are too rough.
biological target: Lysosomal alpha-glucosidase (Homo sapiens) (UniProt P10253); experiment: qHTS Assay for Inhibitors of Human alpha-Glucosidase as a Potential Chaperone Treatment of Pompe Disease; conditions: purified human GAA, 4-MU-alpha-glucoside fluorescence; activity change, negative = inhibition: at 76.9 µM (top of the series) unless noted;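 for activity change, negative = inhibition: plate controls were uninhibited enzyme wells for no effect and no-enzyme background for full effect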
Outline: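 Endpoint fluorogenic read: 20 min room-temperature reaction of 4 nM human alpha-glucosidase with 400 uM 4-methylumbelliferyl-alpha-D-pyranoside, pH 5.0, quenched with 1M NaOH/1M glycine pH 10. AC50 from Hill modeling.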
Potency is the fitted concentration of half-maximal effect; tags give direction and shape of the fitted curve.

SMILES | activity change, negative = inhibition | Potency
CCOc1ccc(S(=O)(=O)Nc2nccs2)cc1 | inconclusive: 20.6% [activator] | –
CCOc1ccc(C(=O)N2CCn3c2nc2ccccc23)cc1 | inconclusive: 17.9% [activator] | –
Nn1c(SCC(=O)Nc2ccc3c(c2)OCO3)nncc1=O | – | inconclusive [inhibitor, single point]
Cc1cc(C)cc(OCC(=O)Nc2ccc(S(=O)(=O)Nc3ccccn3)cc2)c1 | – | inconclusive [inhibitor, partial curve]
O=c1c2ccccc2sn1-c1cc(S(=O)(=O)N2CCOCC2)ccc1N1CCOCC1 | inconclusive: 15.7% [activator] | –
Cc1ccc(-c2csc3nc4c5ccccc5c(NCCCN(C)C)nn4c(=O)c23)cc1 | – | inconclusive [activator, partial curve, poor fit]
COc1ccc(OC(=O)c2cn(C)nc2C(F)(F)F)cc1 | – | inconclusive [inhibitor, single point]
O=C(Nc1ccc(Cl)cn1)c1cc2c(s1)-c1ccccc1OC2 | – | inconclusive [activator, partial curve]
COc1ccc(S(=O)(=O)N2CCC(C(=O)NCCC3=CCCCC3)CC2)cc1OC | – | inconclusive [inhibitor, partial curve, poor fit]
CCOc1ccc(N2C(=O)CC(NCC3CCCO3)C2=O)cc1 (configuration not stated) | inconclusive: 0.19% [activator] | –
CCOC(=O)c1c(N)sc2c1CCC1C(=O)N(C3CCCCC3)C(=O)C21 (configuration not stated) | – | inconclusive [inhibitor, single point]
CC(=O)n1cc(/C=N/NC(N)=S)c2ccccc21 | – | inconclusive [inhibitor, partial curve, poor fit]
O=C(NC(=S)NNS(=O)(=O)c1ccc(Cl)cc1)c1cccnc1 | inconclusive: 15.6% [activator] | –
COC(=O)CNC(=O)c1cc(OC)cc(OC)c1 | – | inconclusive [activator, single point]
CCNC(=S)N1CCC(C(=O)c2ccc3c(c2)OCCO3)CC1 | – | inconclusive [inhibitor, partial curve]
Cc1nc2sc(C(=O)OC(C)C)c(N)c2c(C)c1C | inconclusive: 26.3% [activator] | –
CCOc1ccc(Cn2c(SCCCCC#N)nc3c2c(=O)n(C)c(=O)n3C)cc1OCC | – | inconclusive [inhibitor, single point]
Cn1c(=O)c2c(nc(NCCNC(=O)c3ccco3)n2Cc2ccc(Cl)cc2Cl)n(C)c1=O | – | inconclusive [inhibitor, single point]
Cc1ccc(NC(=O)Cc2ccc(F)cc2)cc1 | – | inconclusive [inhibitor, single point]
CCOC(=O)c1sc(=NC(=O)c2cccc(C)c2)n(C)c1C | – | inconclusive [activator, single point]
CC(C)(C)n1nnnc1C(c1ccccn1)N1CCN(C(c2ccccc2)c2ccccc2)CC1 (configuration not stated) | – | inconclusive [inhibitor, full curve, poor fit]
c1ccc(C2=NNC(=NC3CC3)SC2)cc1 | inactive: -0.472% | –
O=C1CC(Cc2ccccc2)C(=O)N1c1ncccn1 (configuration not stated) | inconclusive: 18.3% [activator] | –

SMILES | activity change, negative = inhibition | Potency
CC(C)(C)C1(C)OC(C(N)=O)C(C(N)=O)O1 (configuration not stated) | – | inconclusive [inhibitor, single point]
N#Cc1c[nH]n2c(=O)c3c(nc12)CCC3 | inconclusive: 12.7% [activator] | –
Cc1ccc(NC(=S)N2CCC(c3ccc(C)cc3)C2)cc1 (configuration not stated) | inconclusive: -15.6% [inhibitor] | –
COc1ccc(CC2(CO)CCN(C(=O)NCc3ccccc3)CC2)cc1 | inconclusive: 15.1% [activator] | –
Cc1cc2c(s1)c1cnn(CC(=O)NCCc3ccccc3)c(=O)c1n2C | inactive: 1.01% | –
CSCCC(NC(=O)c1cc(CC(C)C)oc1C)C(=O)O (configuration not stated) | – | inconclusive [inhibitor, single point]
O=C(C1CCCO1)N1CCN(Cc2c(O)ccc3ccccc23)CC1 (configuration not stated) | – | inconclusive [activator, single point]
C=CCn1c(=N)c(C(=O)OCC)cc2c(=O)n3cc(C)ccc3nc21 | – | inconclusive [activator, partial curve]
CCC(C)NC(=O)c1n[nH]c(=O)c2ccccc12 (configuration not stated) | inconclusive: -15.2% [inhibitor] | –
Cc1nc2ccc(NC(=O)N3CCCCC3)cc2nc1C | – | inconclusive [activator, single point]
Cc1occc1C(=O)N/N=C/C(Br)=C/c1ccccc1 | – | inconclusive [inhibitor, single point]
Cc1nc2sc3c(c2c(=O)n1NC(=O)CCBr)CCCC3 | inconclusive: 16% [activator] | –
COC(=O)c1ccccc1NS(=O)(=O)c1ccc(O)c(C(=O)O)c1 | – | inconclusive [inhibitor, partial curve]
Cc1ccc(C)c(NC(=O)/C(C#N)=C/c2cn(CC(=O)NCc3ccco3)c3ccccc23)c1 | inconclusive: 15.9% [activator] | –
Cc1ncc(CN2CCCC(CCC(=O)NCc3ccc(F)c(F)c3)C2)s1 (configuration not stated) | inconclusive: 19% [activator] | –
CC1CCN(CCCNC(=O)c2coc3nc4ccccc4nc23)CC1 | inconclusive: 131% [activator] | –
N#Cc1cc(-c2ccccc2)cnc1Sc1ccc(Cl)cc1 | – | inconclusive [activator, full curve, poor fit]
Cc1ccc(Cl)cc1N(CC(=O)NC1CCCCC1)S(C)(=O)=O | – | inconclusive [inhibitor, single point]
COC(=O)[C@@H]1C[C@H]1[C@@H](NS(=O)(=O)c1ccccc1)c1ccccc1 | inconclusive: -15.1% [inhibitor] | –
COc1ccc(-c2ccc(C#N)c(SCC(=O)OCc3ccccc3)n2)cc1OC | – | inconclusive [activator, partial curve]
COc1ccc(CCNc2cc(C)nc3c(-c4ccc(Cl)cc4)cnn23)cc1OC | – | inconclusive [activator, partial curve]
O=C(NCCc1c[nH]c2ccccc12)c1cncc(Br)c1 | inconclusive: 27.8% [activator] | –
O=C1C=C(Nc2ccccc2O)c2ccccc2C1=O | inactive: 8.66% | –

SMILES | activity change, negative = inhibition | Potency
CCc1cc2c(=O)c(-c3nc4ccccc4n3C)c(COCC(=O)O)oc2cc1OC(=O)C(C)(C)C | – | inconclusive [inhibitor, single point]
O=C(COC(=O)CCc1ccc(S(=O)(=O)N2CCOCC2)cc1)Nc1cccc(Cl)c1 | – | inconclusive [inhibitor, partial curve, poor fit]
CCOC(=O)N1CCN(C(=O)COc2ccc3c(c2)C(=O)CC2(CCN(C(C)=O)CC2)O3)CC1 | inconclusive: 18.2% [activator] | –
N#Cc1nc(-c2cccs2)oc1NCCc1ccccc1 | – | inconclusive [activator, partial curve]
COc1ccc(C2C(C#N)=C(C)NC3=C2C(=O)CC(C)(C)C3)cc1 (configuration not stated) | – | inconclusive [activator, partial curve]
CC(C)(C)NC(=O)c1cccc(NC(=O)Cc2cccs2)c1 | inconclusive: 11.1% [activator] | –
CCN(CC)S(=O)(=O)c1ccc(NC(=O)CSc2ncnc3ccccc23)cc1 | – | inconclusive [inhibitor, partial curve, poor fit]
CN(C)C(=O)COc1ccc2cc(-c3ccccc3)c(=O)oc2c1 | – | inconclusive [activator, partial curve]
CCCCc1c(C)c(C#N)c2[nH]c3ccccc3n2c1=O | – | inconclusive [activator, partial curve]
Cn1c(SCc2ccccc2)nnc1-c1ccco1 | inactive: -3.21% | –
O=C(Nc1ccc2nc[nH]c2c1)c1ccco1 | inconclusive: -17.7% [inhibitor] | –
OC(CN1CCN(c2ccccn2)CC1)Cn1c2ccc(Cl)cc2c2cc(Cl)ccc21 (configuration not stated) | inconclusive: -17.1% [inhibitor] | –
CC(=O)Nc1ccc(S(=O)(=O)N2CCN(c3cccc(C)c3C)CC2)cc1 | – | inconclusive [inhibitor, partial curve]
COc1cccc(CN2CCN(C3CCN(c4ccccc4C)CC3)CC2CCO)c1 (configuration not stated) | – | inconclusive [inhibitor, full curve, poor fit]
CC(C)CCNC(=O)c1c[nH]c2ccc(S(=O)(=O)N3CCC4(CC3)OCCO4)cc2c1=O | – | inconclusive [inhibitor, partial curve]
CCN(CC)S(=O)(=O)c1cccc(-c2nnc(SCC(=O)NC3CCCCCC3)n2N)c1 | – | inconclusive [inhibitor, single point]
CNc1nccc(-c2ccc(F)cc2)c1C#N | – | inconclusive [activator, single point]
Cc1ccc(/C=N/c2sc3c(c2C#N)CCCCC3)o1 | inactive: -2.75% | –
NC(=O)C(c1ccc(Cl)cc1)c1ccc(Sc2ccccc2)nn1 (configuration not stated) | – | inconclusive [inhibitor, single point]
Cc1ccc(OCCSc2nc(NC(C)C)nc(NC(C)C)n2)cc1 | – | inconclusive [inhibitor, partial curve]
O=C1Nc2ccc(S(=O)(=O)N3CCOCC3)c3cccc1c23 | – | inconclusive [inhibitor, partial curve, poor fit]
